Reference: the antibiotic and cytotoxicity screens of Wong et al. (2023)
The list shows a part of the results.

Tests used:
[1] = test system: HSkMC (human skeletal muscle cells); experiment: cytotoxicity call (relative viability < 0.9); settings: 10 µM
[2] = test system: HepG2; experiment: cytotoxicity call (relative viability < 0.9); settings: 10 µM
[3] = test system: S. aureus RN4220; experiment: growth inhibition call (relative growth <= 0.2); settings: 50 µM

C[C@H](CO)N1C[C@H](C)[C@H](CN(C)S(=O)(=O)c2ccc(Oc3ccccc3)cc2)OCc2cnnn2CCCC1=O
cytotoxicity call [1]: inactive | cytotoxicity call [2]: inactive | growth inhibition call [3]: inactive

CN1CCN(C(=O)C[C@H]2CC[C@H](NC(=O)c3ccc4c(c3)OCO4)[C@H](CO)O2)CC1
cytotoxicity call [1]: inactive | cytotoxicity call [2]: inactive | growth inhibition call [3]: inactive

Cc1cc(C(=O)N2CCNC(=O)C2(C)C)no1
cytotoxicity call [1]: inactive | cytotoxicity call [2]: inactive | growth inhibition call [3]: inactive

CCOC(=O)CN1C(=O)c2ccccc2C1=O
cytotoxicity call [1]: inactive | cytotoxicity call [2]: inactive | growth inhibition call [3]: inactive

COc1ccc(NC(=O)Nc2ccc3c(c2)C(=O)N([C@H](C)CO)C[C@H](C)[C@H](CN(C)Cc2ccc(C(F)(F)F)cc2)OCCCC[C@@H](C)O3)cc1
cytotoxicity call [1]: inactive | cytotoxicity call [2]: inactive | growth inhibition call [3]: inactive

C[C@@H]1CN([C@H](C)CO)C(=O)CCCn2cc(nn2)CO[C@H]1CN(C)Cc1ccc2c(c1)OCCN2C
cytotoxicity call [1]: inactive | cytotoxicity call [2]: inactive | growth inhibition call [3]: inactive

C[C@H](CO)N1C[C@H](C)[C@@H](CN(C)Cc2ccc(Oc3ccccc3)cc2)Oc2c(NC(=O)C3CCOCC3)cccc2C1=O
cytotoxicity call [1]: inactive | cytotoxicity call [2]: inactive | growth inhibition call [3]: inactive

COc1ccc(NC(=O)Nc2ccc3c(c2)C(=O)N([C@@H](C)CO)C[C@@H](C)[C@@H](CN(C)C(=O)Nc2cccc4ccccc24)OCCCC[C@@H](C)O3)cc1
cytotoxicity call [1]: inactive | cytotoxicity call [2]: inactive | growth inhibition call [3]: inactive

C[C@@H]1CCCCO[C@H](CN(C)C(=O)Nc2ccc(F)cc2)[C@@H](C)CN([C@@H](C)CO)C(=O)c2cc(NS(=O)(=O)c3ccccc3)ccc2O1
cytotoxicity call [1]: inactive | cytotoxicity call [2]: inactive | growth inhibition call [3]: inactive

O=S(=O)(NCC[C@H]1CC[C@H](NS(=O)(=O)c2ccccc2Cl)[C@@H](CO)O1)c1ccc(F)cc1
cytotoxicity call [1]: inactive | cytotoxicity call [2]: active | growth inhibition call [3]: inactive

C[C@H](CO)N1C[C@H](C)[C@@H](CN(C)C(=O)Nc2ccc(C(F)(F)F)cc2)Oc2ccc(NC(=O)Nc3ccc(F)cc3)cc2CC1=O
cytotoxicity call [1]: inactive | cytotoxicity call [2]: active | growth inhibition call [3]: inactive

COc1cccc2c1C(=O)c1c(O)c3c(c(O)c1C2=O)C[C@@](O)(C(=O)CO)C[C@@H]3O[C@H]1C[C@H](N)[C@@H](O)[C@H](C)O1
cytotoxicity call [1]: inactive | cytotoxicity call [2]: active | growth inhibition call [3]: active

Cc1cccc(C(=O)NN)c1
cytotoxicity call [1]: inactive | cytotoxicity call [2]: inactive | growth inhibition call [3]: inactive

C[n+]1c2cc(N)ccc2cc2ccc(N)cc21.[Cl-]
cytotoxicity call [1]: inactive | cytotoxicity call [2]: active | growth inhibition call [3]: inactive

C[C@@H]1CN([C@@H](C)CO)C(=O)c2cc(C#CC3(O)CCCC3)cnc2O[C@@H]1CN(C)S(=O)(=O)c1ccc(F)cc1
cytotoxicity call [1]: inactive | cytotoxicity call [2]: inactive | growth inhibition call [3]: inactive

CO[C@H]1CN(C)C(=O)c2ccc(NC(=O)Nc3cccc(Cl)c3)cc2OC[C@H](C)N(C(=O)Nc2c(C)noc2C)C[C@H]1C
cytotoxicity call [1]: inactive | cytotoxicity call [2]: inactive | growth inhibition call [3]: inactive

C[C@H]1CN([C@@H](C)CO)C(=O)c2cc(C#CCN(C)C)cnc2O[C@H]1CN(C)C(=O)CN1CCOCC1
cytotoxicity call [1]: inactive | cytotoxicity call [2]: inactive | growth inhibition call [3]: inactive

COc1ccc(S(=O)(=O)Nc2ccc3c(c2)C(=O)N([C@H](C)CO)C[C@H](C)[C@H](CN(C)C(=O)Nc2ccccc2)OCCCC[C@@H](C)O3)cc1
cytotoxicity call [1]: inactive | cytotoxicity call [2]: inactive | growth inhibition call [3]: inactive

COc1ccc(-c2coc3cc(O)ccc3c2=O)cc1
cytotoxicity call [1]: inactive | cytotoxicity call [2]: inactive | growth inhibition call [3]: inactive

C[C@H](CO)N1C[C@H](C)[C@@H](CN(C)CC2CCCCC2)OCCCC[C@H](C)Oc2ccc(NS(=O)(=O)c3ccc(Cl)cc3)cc2C1=O
cytotoxicity call [1]: inactive | cytotoxicity call [2]: inactive | growth inhibition call [3]: inactive

C[C@@H]1CCCCO[C@@H](CN(C)Cc2ccc(C(=O)O)cc2)[C@H](C)CN([C@H](C)CO)C(=O)c2cc(NC(=O)NC3CCCCC3)ccc2O1
cytotoxicity call [1]: inactive | cytotoxicity call [2]: inactive | growth inhibition call [3]: inactive

COCCNC(=O)C[C@H]1CC[C@@H]2[C@@H](COc3ccc(NC(=O)Nc4cccc(F)c4)cc3C(=O)N2C)O1
cytotoxicity call [1]: inactive | cytotoxicity call [2]: inactive | growth inhibition call [3]: inactive

Cc1noc(C)c1NC(=O)Nc1ccc2c(c1)CC(=O)N([C@@H](C)CO)C[C@H](C)[C@H](CN(C)S(=O)(=O)c1ccccc1)O2
cytotoxicity call [1]: inactive | cytotoxicity call [2]: inactive | growth inhibition call [3]: inactive

COc1ccc(CN(C)C[C@H]2Oc3c(NS(C)(=O)=O)cccc3C(=O)N([C@H](C)CO)C[C@H]2C)cc1
cytotoxicity call [1]: inactive | cytotoxicity call [2]: inactive | growth inhibition call [3]: inactive

Cc1ccc(S(=O)(=O)Nc2ccc3c(c2)C(=O)N([C@H](C)CO)C[C@@H](C)[C@@H](CN(C)S(=O)(=O)c2ccc(F)cc2)O3)cc1
cytotoxicity call [1]: inactive | cytotoxicity call [2]: inactive | growth inhibition call [3]: inactive

NC(=O)NCCCC(N)C(=O)O (stereo not drawn)
cytotoxicity call [1]: inactive | cytotoxicity call [2]: inactive | growth inhibition call [3]: inactive
